These results are taken from publication PMC4336329 (PLoS ONE, 2015).

SMILES strings stand for the structures. Hit rate of the full screen: of about 310,000 compounds, about 2,200 (0.71%) showed an effect of 50% or more. The effect is printed as a negative number. The list shows a part of the results.

The test deals with human ether-à-go-go-related gene (hERG) potassium channel (human, UniProt Q12809). In words: primary screen, population patch clamp on CHO cells stably expressing hERG.
human ether-à-go-go-related gene (hERG) potassium channel, sequence (Q12809 whole entry, looked up): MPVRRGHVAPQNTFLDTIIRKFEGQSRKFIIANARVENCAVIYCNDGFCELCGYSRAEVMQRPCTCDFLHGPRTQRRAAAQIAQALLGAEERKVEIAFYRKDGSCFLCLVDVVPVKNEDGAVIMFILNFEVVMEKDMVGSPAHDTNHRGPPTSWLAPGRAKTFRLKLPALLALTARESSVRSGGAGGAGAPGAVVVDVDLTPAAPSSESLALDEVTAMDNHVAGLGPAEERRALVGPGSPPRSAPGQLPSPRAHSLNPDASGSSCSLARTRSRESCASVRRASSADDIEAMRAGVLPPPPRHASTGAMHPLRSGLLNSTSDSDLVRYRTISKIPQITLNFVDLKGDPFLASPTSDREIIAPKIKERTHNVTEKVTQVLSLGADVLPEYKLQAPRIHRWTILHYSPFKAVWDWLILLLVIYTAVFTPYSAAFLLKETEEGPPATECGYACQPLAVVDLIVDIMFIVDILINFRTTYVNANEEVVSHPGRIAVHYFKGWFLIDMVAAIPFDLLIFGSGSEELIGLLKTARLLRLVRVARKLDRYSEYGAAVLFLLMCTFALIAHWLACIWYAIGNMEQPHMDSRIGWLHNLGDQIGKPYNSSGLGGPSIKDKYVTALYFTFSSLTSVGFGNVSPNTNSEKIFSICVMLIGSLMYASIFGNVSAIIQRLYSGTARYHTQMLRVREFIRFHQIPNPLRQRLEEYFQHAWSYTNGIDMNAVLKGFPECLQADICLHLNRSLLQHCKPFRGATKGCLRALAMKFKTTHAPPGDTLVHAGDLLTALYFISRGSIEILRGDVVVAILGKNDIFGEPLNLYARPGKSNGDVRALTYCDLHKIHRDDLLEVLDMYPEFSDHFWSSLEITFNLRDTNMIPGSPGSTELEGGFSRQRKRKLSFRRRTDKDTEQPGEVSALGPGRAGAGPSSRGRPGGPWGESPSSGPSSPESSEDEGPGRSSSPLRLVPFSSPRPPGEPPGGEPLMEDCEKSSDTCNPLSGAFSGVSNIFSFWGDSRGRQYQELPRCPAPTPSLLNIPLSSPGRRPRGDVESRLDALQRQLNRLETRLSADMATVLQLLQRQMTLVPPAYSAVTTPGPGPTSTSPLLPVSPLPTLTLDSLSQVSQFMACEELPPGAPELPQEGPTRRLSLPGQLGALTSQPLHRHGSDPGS
`CCN(CC)CCCn1c2c(c(SCC(=O)Nc3ccc(F)c(F)c3)nc1=O)CCC2`: the “hERG current change (%, negative = inhibition) at 1uM” value is listed as -8.08%.

As for `Cc1cccc[n+]1CC(=O)/C=C1\N(C)c2ccccc2C1(C)C.[Cl-]`, the “hERG current change (%, negative = inhibition) at 1uM” value stood at 21.7%.

Take `CC(C)(C)OC(=O)N/N=C\c1ccc(OC(=O)c2cccs2)cc1`: the “hERG current change (%, negative = inhibition) at 1uM” value is listed as 9.49%. In the case of `O=c1c2ccccc2nc(SCc2cn3ccsc3n2)n1-c1ccccc1`, the “hERG current change (%, negative = inhibition) at 1uM” value was found to be 8.55%. On to `Cc1onc(C(=O)N2CCN(c3ccccc3F)CC2)c1-c1ccccc1Cl`, for which the “hERG current change (%, negative = inhibition) at 1uM” value is 11.1%. On to `CCc1cc(CNC(=O)c2ccc(OC3CCN(C(C)=O)CC3)c(OC)c2)on1`, for which the “hERG current change (%, negative = inhibition) at 1uM” value is listed as 17.5%. Turning to `CC(=O)C(C)Oc1ccc2c3c(c(=O)oc2c1C)CCCC3` (stereo not shown), the “hERG current change (%, negative = inhibition) at 1uM” value is listed as 21.1%. As for `O=c1cc([O-])n(Cc2ccc(F)cc2)c(=O)[nH]1.[NH4+]`, the “hERG current change (%, negative = inhibition) at 1uM” value was 16%. Take `CCOc1ccc(C(=O)NCC(=O)N2CCC3(CC2)NCCc2[nH]cnc23)cc1`: the “hERG current change (%, negative = inhibition) at 1uM” value amounted to 3.95%.

Take `COc1ccc(C(CCN2CCOCC2)c2c(O)cc(OC)cc2OC)cc1` (stereo not shown): the “hERG current change (%, negative = inhibition) at 1uM” value is listed as -9.97%. For the compound `O=C(NNC(=O)c1ccco1)c1cccc(Br)c1`, the “hERG current change (%, negative = inhibition) at 1uM” value came out at 1.74%. As to `CC(=O)c1ccc(N2C(=O)[C@@H]3[C@H](C2=O)[C@H]2c4ccccc4C=NN2[C@@H]3C(C)=O)cc1`, the “hERG current change (%, negative = inhibition) at 1uM” value is 24.2%. The result for `O=C(O)C(Cc1ccccc1)NS(=O)(=O)c1ccc(Cl)cc1` (stereo not shown) reads 9.27%; that for `Cc1cccc(-n2c(C)cc(/C=C3/C(=N)N4C(c5ccccc5)=CSC4=NC3=O)c2C)c1`, 4.26%.

As for `C=CCN1c2ccccc2[C@]23C[C@@H](C(=O)OC)N(C(=O)OCC)C2=NC(C(=O)OC)=C(C(=O)OC)[C@H]13`, the “hERG current change (%, negative = inhibition) at 1uM” value turned out to be 10.2%. Turning to `CCC(=O)OCC(=O)[C@@]1(OC(=O)CC)[C@@H](C)C[C@H]2[C@@H]3CCC4=CC(=O)C=C[C@]4(C)[C@@]3(Cl)[C@@H](O)C[C@@]21C`, the “hERG current change (%, negative = inhibition) at 1uM” value is recorded as 8.68%. `Cn1cccc1Cc1nnc(SCC(=O)NCC2CCCO2)n1-c1ccc(F)cc1` (stereo not shown): the “hERG current change (%, negative = inhibition) at 1uM” value was 7.39%. The result for `COc1ccc(N(C(=O)Cn2nnc(-c3ccc(F)cc3)n2)C(C)C(=O)NC2CCCC2)cc1OC` (stereo not shown) reads 9.57%; that for `Cc1[nH][nH]c(=O)c1C(c1ccc(O)c([N+](=O)[O-])c1)c1c(C)[nH][nH]c1=O`, 16.9%; that for `O=C(/C=C/c1ccccc1Br)c1ccc2c(c1)OCO2`, -2.25%.

As for `CCOC(=O)c1sc(NC(=O)c2ccccc2)cc1C`, the “hERG current change (%, negative = inhibition) at 1uM” value is 9.19%. The result for `CC1CCCCC1NC(=O)NC(=O)COC(=O)C1=NN(c2ccccc2)C(=O)CC1` (stereo not shown) reads 10.5%.
